Drawing on the antibiotic and cytotoxicity screens of Wong et al. (2023), this text covers cytotoxicity call and growth inhibition call for 26 compounds.

The subject of one assay is HSkMC. Briefly: cytotoxicity call (relative viability < 0.9). Conditions: 10 µM.
The test system of the next assay is HepG2. Briefly: cytotoxicity call (relative viability < 0.9). Conditions: 10 µM.
A further assay deals with S. aureus RN4220. The experiment in a line: growth inhibition call (relative growth <= 0.2). Conditions: 50 µM.

The structures appear in SMILES notation. The list shows a part of the results.

Regarding `COc1ccc(NC(=O)N(C)C[C@H]2OCCCC[C@H](C)Oc3ccc(NC(=O)Nc4ccc5c(c4)OCO5)cc3C(=O)N([C@@H](C)CO)C[C@H]2C)cc1`, the cytotoxicity call with HSkMC and in the assay on HepG2 was “inactive” throughout. Further, the growth inhibition call in the assay with S. aureus RN4220 was “inactive”.

Regarding `C[C@@H]1CCCCO[C@@H](CN(C)C(=O)c2ccccc2)[C@@H](C)CN([C@@H](C)CO)C(=O)c2cc(NS(=O)(=O)c3ccc(F)cc3)ccc2O1`, the cytotoxicity call in the assay on HSkMC and with HepG2 was “inactive” throughout. In addition, in the assay on S. aureus RN4220, the growth inhibition call is “inactive”.

Consider `CC(=O)N1CCO[C@H]2CCN(C(=O)c3ccn(C)n3)C[C@H]21`, for which the cytotoxicity call in the assay on HSkMC and in the assay with HepG2 was “inactive” throughout. The growth inhibition call in the assay on S. aureus RN4220 is “inactive”.

For the compound `Cc1ccc(S(=O)(=O)Nc2ccc3c(c2)CC(=O)N([C@H](C)CO)C[C@@H](C)[C@H](CN(C)S(=O)(=O)c2cccs2)O3)cc1`, the cytotoxicity call with HSkMC and in the assay with HepG2 was “inactive” in each case. Also, the growth inhibition call in the assay on S. aureus RN4220 is “inactive”.

With `C[C@@H]1CN([C@@H](C)CO)C(=O)Cc2cc(NC(=O)Nc3ccccc3)ccc2O[C@@H]1CN(C)Cc1ccc(C(=O)Nc2ccccc2N)cc1`, the cytotoxicity call in the assay with HSkMC and in the assay with HepG2 was “inactive” each time. In the assay with S. aureus RN4220, the growth inhibition call is “inactive”.

For the compound `C[C@@H]1CCCCO[C@H](CN(C)S(=O)(=O)c2ccc(Cl)cc2)[C@@H](C)CN([C@H](C)CO)C(=O)c2cc(NC(=O)Nc3ccccc3)ccc2O1`, the cytotoxicity call in the assay on HSkMC and in the assay on HepG2 was “inactive” each time. The growth inhibition call with S. aureus RN4220 is “inactive”.

Consider `COc1ccc([Si](C)(C)[C@H]2[C@H](CCn3cc([C@H](O)c4ccccc4)nn3)O[C@@]3(C(=O)N(Cc4cccc(N5CCOC5=O)c4)c4ccccc43)[C@@H]2C)cc1`, for which the cytotoxicity call with HSkMC and with HepG2 was “inactive” throughout. Further, in the assay with S. aureus RN4220, the growth inhibition call was “inactive”.

For `C[C@@H]1CN([C@H](C)CO)C(=O)c2cc(-c3ccncc3)cnc2O[C@H]1CN(C)S(=O)(=O)c1ccc(F)cc1`, the cytotoxicity call in the assay on HSkMC and in the assay with HepG2 was “inactive” each time. In the assay on S. aureus RN4220, the growth inhibition call was “inactive”.

On to `COc1ccc(NC(=O)Nc2ccc3c(c2)C(=O)N([C@H](C)CO)C[C@@H](C)[C@@H](CN(C)CC2CCCCC2)OCCCC[C@@H](C)O3)cc1`, for which the cytotoxicity call in the assay with HSkMC and in the assay with HepG2 was “active” each time. Besides, the growth inhibition call in the assay with S. aureus RN4220 is “inactive”.

Consider `Cc1ccc(S(=O)(=O)Nc2cccc3c2O[C@H](CN(C)C(=O)Nc2ccc(C(F)(F)F)cc2)[C@@H](C)CN([C@@H](C)CO)C3=O)cc1`, for which the cytotoxicity call in the assay with HSkMC and in the assay on HepG2 was “inactive” in each case. For the same compound, the growth inhibition call in the assay with S. aureus RN4220 is “inactive”.

For the compound `CC(C)NC(=O)Nc1ccc2c(c1)CC(=O)N([C@H](C)CO)C[C@@H](C)[C@H](CN(C)S(=O)(=O)c1ccc(F)cc1)O2`, the cytotoxicity call in the assay on HSkMC and in the assay on HepG2 was “inactive” in each case. Further, the growth inhibition call in the assay on S. aureus RN4220 was “inactive”.

As to `CC(C)C(=O)Oc1ccc(CO)cc1C(CCN(C(C)C)C(C)C)c1ccccc1.O=C(O)C=CC(=O)O` (stereo not drawn), the cytotoxicity call with HSkMC was “inactive”. The cytotoxicity call with HepG2 is “active”. The growth inhibition call in the assay with S. aureus RN4220 is “inactive”.

As to `CCOC(=O)Cn1c(=O)c2c(OC)ccnc2n(C)c1=O`, the cytotoxicity call in the assay on HSkMC and with HepG2 was “inactive” throughout. Further, the growth inhibition call in the assay with S. aureus RN4220 was “inactive”.

`C[C@H](CO)N1C[C@H](C)[C@H](CN(C)Cc2ccc(C(=O)O)cc2)OCCCC[C@H](C)Oc2ccc(NC(=O)Nc3cccc4ccccc34)cc2C1=O`: the cytotoxicity call in the assay on HSkMC and in the assay with HepG2 was “inactive” in each case. Also, the growth inhibition call in the assay with S. aureus RN4220 is “inactive”.

In the case of `CC(C)NC(=O)Nc1ccc2c(c1)C(=O)N([C@H](C)CO)C[C@@H](C)[C@@H](CN(C)S(=O)(=O)c1cn(C)cn1)OCCCC[C@H](C)O2`, the cytotoxicity call with HSkMC and with HepG2 was “inactive” each time. The growth inhibition call in the assay on S. aureus RN4220 was “inactive”.

On to `COc1ccc(S(=O)(=O)N[C@@H]2C=C[C@@H](CC(=O)N3CCC(Cc4ccccc4)CC3)O[C@@H]2CO)cc1`, for which the cytotoxicity call in the assay on HSkMC and with HepG2 was “inactive” in each case. The growth inhibition call in the assay with S. aureus RN4220 was “inactive”.

On to `C[C@@H](O)C#Cc1ccc2c(c1)O[C@H](CN(C)C(=O)Cc1ccccn1)[C@@H](C)CN([C@@H](C)CO)S2(=O)=O`, for which the cytotoxicity call with HSkMC and in the assay with HepG2 was “inactive” each time. The growth inhibition call in the assay with S. aureus RN4220 was “inactive”.

Consider `Cc1ccc(S(=O)(=O)N(C)C[C@@H]2Oc3cc(Br)ccc3S(=O)(=O)N([C@@H](C)CO)C[C@H]2C)cc1`, for which the cytotoxicity call in the assay with HSkMC and with HepG2 was “inactive” throughout. Moreover, in the assay on S. aureus RN4220, the growth inhibition call was “inactive”.

On to `C[C@H]1CCCCO[C@H](CN(C)Cc2ccc(C(=O)O)cc2)[C@@H](C)CN([C@@H](C)CO)C(=O)c2cc(NC(=O)Nc3ccccc3)ccc2O1`, for which the cytotoxicity call in the assay with HSkMC and in the assay with HepG2 was “inactive” each time. For the same compound, the growth inhibition call in the assay with S. aureus RN4220 is “inactive”.

For `COc1ccc(NC(=O)N(C)C[C@H]2Oc3ccc(NC(=O)CCCN(C)C)cc3C(=O)N([C@@H](C)CO)C[C@H]2C)cc1`, the cytotoxicity call in the assay with HSkMC and with HepG2 was “inactive” throughout. The growth inhibition call in the assay with S. aureus RN4220 was “inactive”.

In the case of `C[C@H]1CN([C@@H](C)CO)S(=O)(=O)c2ccc(C#Cc3ccccc3)cc2O[C@H]1CN(C)C(=O)Cc1ccccn1`, the cytotoxicity call in the assay on HSkMC (human skeletal muscle cells) and with HepG2 was “inactive” in each case. Further, the growth inhibition call with S. aureus RN4220 was “inactive”.

As to `CO/N=C(\C(=O)N[C@@H]1C(=O)N2C(C(=O)O)=C(C[n+]3ccn4ncccc43)CS[C@H]12)c1nsc(N)n1`, the cytotoxicity call in the assay with HSkMC and in the assay with HepG2 was “inactive” throughout. Moreover, the growth inhibition call in the assay on S. aureus RN4220 is “inactive”.

For `O=C(C[C@H]1C[C@H]2c3cc(NS(=O)(=O)c4ccc(F)cc4)ccc3O[C@H]2[C@@H](CO)O1)NCc1ccncc1`, the cytotoxicity call in the assay with HSkMC and with HepG2 was “inactive” throughout. Moreover, the growth inhibition call in the assay with S. aureus RN4220 was “inactive”.

On to `C[C@H](CO)N1C[C@H](C)[C@@H](CN(C)C(=O)Cc2ccccn2)Oc2cc(-c3cccc(C(=O)N(C)C)c3)ccc2S1(=O)=O`, for which the cytotoxicity call in the assay with HSkMC and in the assay on HepG2 was “inactive” each time. Also, in the assay on S. aureus RN4220, the growth inhibition call is “inactive”.

As for `CC(C)CC#Cc1ccc2c(c1)O[C@@H](CN(C)C(=O)Cc1ccncc1)[C@H](C)CN([C@@H](C)CO)S2(=O)=O`, the cytotoxicity call with HSkMC and in the assay on HepG2 was “inactive” throughout. For the same compound, the growth inhibition call with S. aureus RN4220 was “inactive”.

As to `C[C@@H]1CN([C@@H](C)CO)C(=O)c2cccc(NS(=O)(=O)c3cn(C)cn3)c2O[C@@H]1CN(C)S(=O)(=O)c1cccs1`, the cytotoxicity call in the assay with HSkMC and in the assay on HepG2 was “inactive” in each case. For the same compound, the growth inhibition call in the assay on S. aureus RN4220 is “inactive”.
